Laboratory results as given in the antibiotic and cytotoxicity screens of Wong et al. (2023).
The other results are listed elsewhere or left out.

How the values were obtained:
HSkMC = human skeletal muscle cells; assay: cytotoxicity call (relative viability < 0.9); details: 10 µM
HepG2 = assay: cytotoxicity call (relative viability < 0.9); details: 10 µM
S. aureus RN4220 = assay: growth inhibition call (relative growth <= 0.2); details: 50 µM

Cn1c(CN)nc2ccccc2c1=O
inactive: cytotoxicity call (HSkMC) | cytotoxicity call (HepG2) | growth inhibition call (S. aureus RN4220)

C[C@@H]1CN([C@@H](C)CO)C(=O)Cc2cc(NS(=O)(=O)c3cn(C)cn3)ccc2O[C@H]1CN(C)S(C)(=O)=O
inactive: cytotoxicity call (HSkMC) | cytotoxicity call (HepG2) | growth inhibition call (S. aureus RN4220)

COc1ccc(-c2cc(C(F)F)nn2-c2ccc(S(N)(=O)=O)cc2)cc1F
inactive: cytotoxicity call (HSkMC) | cytotoxicity call (HepG2) | growth inhibition call (S. aureus RN4220)

COc1ccc(NC(=O)Nc2ccc3c(c2)C(=O)N([C@@H](C)CO)C[C@@H](C)[C@H](CN(C)C(=O)Nc2ccc4c(c2)OCO4)OCCCC[C@@H](C)O3)cc1
inactive: cytotoxicity call (HSkMC) | cytotoxicity call (HepG2) | growth inhibition call (S. aureus RN4220)

COc1cccc(C#Cc2cnc3c(c2)C(=O)N([C@H](C)CO)C[C@@H](C)[C@@H](CN(C)C(=O)C2CCC2)O3)c1
inactive: cytotoxicity call (HSkMC) | cytotoxicity call (HepG2) | growth inhibition call (S. aureus RN4220)

CN1C(=O)c2cc(NC(=O)c3cscn3)ccc2OC[C@@H]2O[C@@H](CC(=O)N3CCOCC3)CC[C@@H]21
inactive: cytotoxicity call (HSkMC) | cytotoxicity call (HepG2) | growth inhibition call (S. aureus RN4220)

C[C@H](CO)N1C[C@H](C)[C@H](CN(C)S(=O)(=O)c2cccs2)OCCCC[C@H](C)Oc2ccc(NC(=O)CCC(F)(F)F)cc2C1=O
inactive: cytotoxicity call (HSkMC) | cytotoxicity call (HepG2) | growth inhibition call (S. aureus RN4220)
